The list shows a part of the results.
Each compound was assayed on S. aureus RN4220 (assay: growth inhibition call (relative growth <= 0.2)). Conditions: 50 µM.

Growth inhibition call, inactive:
COCC(=O)N1CC(=O)N2[C@H](CO)[C@H](c3ccc(C#Cc4cccnc4)cc3)[C@@H]2C1, C[C@H](CO)N1C[C@H](C)[C@@H](CN(C)Cc2ccc(-c3ccccc3)cc2)Oc2ccc(NC(=O)C3CCCCC3)cc2C1=O, C[C@@H]1CN([C@@H](C)CO)S(=O)(=O)c2ccc(C#CC3CC3)cc2O[C@H]1CN(C)C(=O)c1cccc(F)c1, O=S(=O)(c1c[nH]c2ncccc12)N1CC(S(=O)(=O)N2CCOCC2)C1, CN1CCN(C(=O)C[C@H]2CC[C@@H]3[C@H](COC[C@@H](O)CN3S(=O)(=O)c3cccc(Cl)c3)O2)CC1, Cc1noc(C)c1NC(=O)N(C)C[C@H]1Oc2ccc(NS(=O)(=O)c3cccs3)cc2CC(=O)N([C@H](C)CO)C[C@@H]1C, C[C@@H]1CCCCO[C@H](CN(C)C(=O)NC2CCCCC2)[C@@H](C)CN([C@@H](C)CO)C(=O)c2cc(NC(=O)NC3CCCCC3)ccc2O1, COc1cccc(C(=O)Nc2ccc3c(c2)C(=O)N(C)[C@H]2CC[C@H](CC(=O)NCCCN4CCOCC4)O[C@H]2CO3)c1, CC(C)=CCc1c2c(c3occ(-c4ccc(O)cc4)c(=O)c3c1O)C=CC(C)(C)O2, CC(C)NC(=O)N(C)C[C@@H]1Oc2ccc(NS(=O)(=O)c3ccc(F)cc3)cc2C(=O)N([C@H](C)CO)C[C@H]1C, CN1C(=O)COc2cc(N)ccc21, Cc1noc(C)c1S(=O)(=O)Nc1ccc2c(c1)C(=O)N([C@H](C)CO)C[C@H](C)[C@@H](CN(C)Cc1ccc(-c3ccccc3)cc1)O2, NCc1ccccc1-c1ccsc1, COCC(=O)N(C)C[C@@H]1Oc2cc(C#CCN(C)C)ccc2S(=O)(=O)N([C@H](C)CO)C[C@@H]1C, CCCC[C@H](C)C[C@H](O)/C=C/[C@H]1[C@H](O)CC(=O)[C@@H]1CCCC/C=C/C(=O)O, C[C@H](CO)N1C[C@H](C)[C@@H](CN(C)C(=O)Cc2ccccc2)OCCCC[C@H](C)Oc2ccc(NC(=O)Nc3ccc4c(c3)OCO4)cc2C1=O, Cc1nn(C)cc1NC(=O)C[C@@H]1CC[C@@H]2[C@H](COc3ccc(NC(=O)C4CCOCC4)cc3C(=O)N2C)O1, Cc1noc(C)c1NC(=O)N(C)C[C@H]1Oc2ccc(NC(=O)Nc3ccc(C(F)(F)F)cc3)cc2CC(=O)N([C@@H](C)CO)C[C@H]1C, COc1ccccc1S(=O)(=O)N[C@@H]1C=C[C@H](CC(=O)N2CCOCC2)O[C@@H]1CO, COc1ccc(S(=O)(=O)Nc2ccc3c(c2)C(=O)N([C@H](C)CO)C[C@H](C)[C@H](CN(C)S(=O)(=O)c2ccc(C)cc2)O3)cc1, Cc1noc(C)c1S(=O)(=O)N(C)C[C@H]1Oc2ccc(NC(=O)Cn3cnnn3)cc2CC(=O)N([C@H](C)CO)C[C@H]1C, CC1=CC2C(C(C)C)CCC(C)(O)C2CC1 (stereo not given), COC(=O)Cc1cccn1C, COc1ccc(-c2cccc(-c3ccc([C@H]4CC(=O)C[C@@H](c5ccccc5)C45C(=O)OC(C)(C)OC5=O)cc3)c2)cc1, C[C@H]1CN([C@@H](C)CO)C(=O)Cc2cc(NC(=O)CCCCCC(=O)Nc3ccccc3N)ccc2O[C@@H]1CN(C)Cc1ccccc1, C[C@H]1CN([C@@H](C)CO)C(=O)c2cc(C#CCN(C)C)cnc2O[C@@H]1CN(C)C(=O)c1ccc2c(c1)OCO2, C[C@H](O)C#Cc1ccc2c(c1)O[C@@H](CN(C)C(=O)Nc1ccccc1)[C@H](C)CN([C@@H](C)CO)S2(=O)=O, COC(=O)[C@H](Cc1ccccc1)N1CC(/C=C/C2CC2)=C[C@@H]1[C@@H](O)CCn1cc(-c2ccc(C(=O)NO)s2)nn1, C[C@@H]1CN([C@@H](C)CO)C(=O)c2cc(Br)cnc2O[C@@H]1CN(C)S(=O)(=O)c1ccc(F)cc1, C[C@H]1CN([C@@H](C)CO)C(=O)c2cc(C#CCc3ccccc3)cnc2O[C@@H]1CN(C)C(=O)C1CCOCC1, Cc1noc(C)c1S(=O)(=O)Nc1ccc2c(c1)C(=O)N([C@H](C)CO)C[C@H](C)[C@@H](CN(C)C(=O)Nc1ccccc1)OCCCC[C@@H](C)O2, Cc1ccc(S(=O)(=O)Nc2ccc3c(c2)C(=O)N([C@H](C)CO)C[C@H](C)[C@H](CN(C)Cc2ccc(C(F)(F)F)cc2)OCCCC[C@H](C)O3)cc1, Cc1noc(C)c1NC(=O)N(C)C[C@H]1Oc2c(NC(=O)Nc3ccc(C(F)(F)F)cc3)cccc2C(=O)N([C@@H](C)CO)C[C@@H]1C, COc1cccc(S(=O)(=O)N(C)C[C@@H]2Oc3cc(C#CCN(C)C)ccc3S(=O)(=O)N([C@@H](C)CO)C[C@H]2C)c1, Cc1cc(C(=O)Nc2cccc3c2O[C@@H](CN(C)C(=O)Nc2c(C)noc2C)[C@@H](C)CN([C@H](C)CO)C3=O)n(C)n1, C[C@@H]1CN([C@H](C)CO)C(=O)Cc2cc(NC(=O)Nc3cccc4ccccc34)ccc2O[C@@H]1CN(C)Cc1ccc(C(=O)O)cc1, C[C@@H]1CN([C@H](C)CO)C(=O)c2cc(NS(=O)(=O)c3cccs3)ccc2O[C@@H](C)CCCCO[C@@H]1CN(C)Cc1ccc(Cl)c(Cl)c1, Cn1c(=O)c2c(nc(S(C)(=O)=O)n2C)n(C)c1=O, C[C@H]1CN([C@@H](C)CO)S(=O)(=O)c2ccc(C#Cc3ccc(F)cc3)cc2O[C@H]1CN(C)S(C)(=O)=O, COc1ccc(CN(C)C[C@H]2Oc3ccc(NS(C)(=O)=O)cc3CC(=O)N([C@H](C)CO)C[C@H]2C)cc1

Source: the antibiotic and cytotoxicity screens of Wong et al. (2023)
